# The other results are listed elsewhere or left out.
# B1: PX15618A-bth-503-24-503 (Bacteroides thetaiotaomicron) (protein)
# chain: NKSEDKLSGDDFWAQGNETNAEAFLLSIYNSFRNATMSQRPFLTYSGDMRCAPITAYSTGDKYVAYLANNDMGELRNTYPDDARGGLIMQWDVFYTAIQDANILLAEIDKVPGMDELKRSRFKAEAIFMRSLSYFFIVRAFGDVPYYTNAYNEAPLPRTNMVIVLQNCLADLQPLLDDDPGAEVLPWSYSSYSSKGIRASRGSVIALMMHINLWLVQFDAQNKEQYYRNVVSLGEELERNNGAYSLLDINRSSVIFAGGSDEGLFEIAQNINFNEIFMMNAKFSDNVSYSCLNKSMPLFCYSGDYLMTLFPMYEDDARKELWFDEKIYSTSVSSSAPKEIKKFWNIDTYGNGTITSNSGNQIVFRYAGALLLYAEALAALGTNDTKACELLNRVRNRAHASEINTSGSELMDAIFWERCRELIGEGHYYYDLVRTGKVYNRNYCMNPMTRTNFNVGAWTWPIHRNALKNNTQIGLNLFWE
# How the values were obtained:
# Assay in all cases: glycan array binding signal (z-score within array); higher = stronger binding
# Conditions in all cases: glycan notation: IUPAC condensed, linker removed
# [1] = target: GalNAc(b1-4)GlcNAc(b1-2)Man
# How it was run: (§1)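 Columns mapping to the same glycan were averaged after glycan names were converted to IUPAC-condensed notation. The data come from 3228 arrays in the Consortium for Functional Glycomics database, limited to those with an available protein sequence. Binding is reported as a within-array Z-score averaged across arrays of one protein sequence and across linkers.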
# [2] = target: GalNAc(b1-4)GlcNAc(b1-2)Man(a1-3)[GalNAc(b1-4)GlcNAc(b1-2)Man(a1-6)]Man(b1-4)GlcNAc(b1-4)GlcNAc
# How it was run: as §1
# [3] = target: GalNAc(b1-4)GlcNAc(b1-3)GalNAc(b1-4)GlcNAc
# How it was run: as §1
# [4] = target: GalNAc(b1-4)GlcNAc6S
# How it was run: as §1
# [5] = target: GalNAc(b1-6)GalNAc
# How it was run: as §1
# [6] = target: GalNAc3S(b1-4)GlcNAc
# How it was run: as §1
# [7] = target: GalNAc3S(b1-4)GlcNAc3S
# How it was run: as §1
# [8] = target: GalNAc3S(b1-4)[Fuc(a1-3)]GlcNAc
# How it was run: as §1
# [9] = target: GalNAc4S6S(b1-4)GlcNAc
# How it was run: as §1
# [10] = target: GalNAc6S(b1-4)GlcNAc
# How it was run: as §1
# [11] = target: Glc(a1-4)Glc
# How it was run: as §1
# [12] = target: Glc(a1-4)Glc(a1-4)Glc(a1-4)Glc
# How it was run: as §1
# [13] = target: Glc(a1-6)Glc(a1-6)Glc
# How it was run: as §1
# [14] = target: Glc(a1-6)Glc(a1-6)Glc(a1-6)Glc
# How it was run: as §1
# [15] = target: Glc(b1-4)Glc
# How it was run: as §1
# [16] = target: Glc(b1-6)Glc
# How it was run: as §1
# [17] = target: GlcA(b1-3)Gal
# How it was run: as §1
# [18] = target: GlcA(b1-3)GlcNAc
# How it was run: as §1
# [19] = target: GlcA(b1-6)Gal
# How it was run: as §1
# [20] = target: GlcA3S(b1-3)Gal(b1-4)GlcNAc(b1-2)Man
# How it was run: as §1
# [21] = target: GlcA3S(b1-3)Gal(b1-4)GlcNAc(b1-3)Gal(b1-4)Glc
# How it was run: as §1
# [22] = target: GlcNAc(a1-3)Gal(b1-4)GlcNAc
# How it was run: as §1
# [23] = target: GlcNAc(a1-4)Gal(b1-3)GlcNAc
# How it was run: as §1
# [24] = target: GlcNAc(a1-4)Gal(b1-4)GalNAc
# How it was run: as §1
# [25] = target: GlcNAc(a1-4)Gal(b1-4)GlcNAc
# How it was run: as §1
# [26] = target: GlcNAc(a1-4)Gal(b1-4)GlcNAc(b1-3)Gal(b1-4)Glc
# How it was run: as §1
# [27] = target: GlcNAc(a1-4)Gal(b1-4)GlcNAc(b1-3)Gal(b1-4)GlcNAc
# How it was run: as §1
# [28] = target: GlcNAc(a1-4)Gal(b1-4)GlcNAc(b1-3)Gal(b1-4)GlcNAc(b1-3)Gal(b1-4)GlcNAc
# How it was run: as §1
# [29] = target: GlcNAc(a1-4)Gal(b1-4)GlcNAc(b1-3)Gal(b1-4)[Fuc(a1-3)]GlcNAc(b1-3)Gal(b1-4)[Fuc(a1-3)]GlcNAc
# How it was run: as §1
# [30] = target: GlcNAc(a1-6)Gal(b1-4)GlcNAc
# How it was run: as §1
# [31] = target: GlcNAc(b1-2)Gal(b1-3)GalNAc
# How it was run: as §1
# [32] = target: GlcNAc(b1-2)Man(a1-3)[GlcNAc(b1-2)Man(a1-6)]Man(b1-4)GlcNAc(b1-4)GlcNAc
# How it was run: as §1
# [33] = target: GlcNAc(b1-2)Man(a1-3)[GlcNAc(b1-2)Man(a1-6)]Man(b1-4)GlcNAc(b1-4)[Fuc(a1-6)]GlcNAc
# How it was run: as §1
# [34] = target: GlcNAc(b1-2)Man(a1-3)[GlcNAc(b1-4)][GlcNAc(b1-2)Man(a1-6)]Man(b1-4)GlcNAc(b1-4)GlcNAc
# How it was run: as §1
# [35] = target: GlcNAc(b1-2)Man(a1-3)[GlcNAc(b1-4)][GlcNAc(b1-2)Man(a1-6)]Man(b1-4)GlcNAc(b1-4)[Fuc(a1-6)]GlcNAc
# How it was run: as §1
# [36] = target: GlcNAc(b1-2)[GlcNAc(b1-4)]Man(a1-3)[GlcNAc(b1-2)Man(a1-6)]Man(b1-4)GlcNAc(b1-4)GlcNAc
# How it was run: as §1
# [37] = target: GlcNAc(b1-2)[GlcNAc(b1-4)]Man(a1-3)[GlcNAc(b1-4)][GlcNAc(b1-2)Man(a1-6)]Man(b1-4)GlcNAc(b1-4)GlcNAc
# How it was run: as §1
binder,measurement,setting,value
B1,glycan array binding signal (z-score),[1],0.15
same,glycan array binding signal (z-score),[2],1.3
same,glycan array binding signal (z-score),[3],0.04
same,glycan array binding signal (z-score),[4],-0.056
same,glycan array binding signal (z-score),[5],0.148
same,glycan array binding signal (z-score),[6],0.505
same,glycan array binding signal (z-score),[7],-0.483
same,glycan array binding signal (z-score),[8],-0.361
same,glycan array binding signal (z-score),[9],0.28
same,glycan array binding signal (z-score),[10],0.458
same,glycan array binding signal (z-score),[11],0.152
same,glycan array binding signal (z-score),[12],-0.5
same,glycan array binding signal (z-score),[13],-0.476
same,glycan array binding signal (z-score),[14],-0.359
same,glycan array binding signal (z-score),[15],-0.535
same,glycan array binding signal (z-score),[16],-0.478
same,glycan array binding signal (z-score),[17],-0.801
same,glycan array binding signal (z-score),[18],-0.316
same,glycan array binding signal (z-score),[19],-0.758
same,glycan array binding signal (z-score),[20],-0.619
same,glycan array binding signal (z-score),[21],-0.378
same,glycan array binding signal (z-score),[22],-0.55
same,glycan array binding signal (z-score),[23],-0.55
same,glycan array binding signal (z-score),[24],0.061
same,glycan array binding signal (z-score),[25],-0.394
same,glycan array binding signal (z-score),[26],-0.749
same,glycan array binding signal (z-score),[27],-0.663
same,glycan array binding signal (z-score),[28],-0.188
same,glycan array binding signal (z-score),[29],0.179
same,glycan array binding signal (z-score),[30],-0.863
same,glycan array binding signal (z-score),[31],-0.413
same,glycan array binding signal (z-score),[32],-0.362
same,glycan array binding signal (z-score),[33],0.268
same,glycan array binding signal (z-score),[34],-0.381
same,glycan array binding signal (z-score),[35],-0.489
same,glycan array binding signal (z-score),[36],-0.803
same,glycan array binding signal (z-score),[37],-0.186
